Reference: the supplement of paper PMC3724861
The list shows a part of the results.

test system: T1, Caupolican (Caup) homeodomain DNA-binding domain; test: PBM E-score (8-mer, recovered from the published 9-mer minima) (E-score (dimensionless, -0.5 to 0.5)); Drosophila protein; higher = stronger relative binding preference, active = 0.31 or more
T1 sequence: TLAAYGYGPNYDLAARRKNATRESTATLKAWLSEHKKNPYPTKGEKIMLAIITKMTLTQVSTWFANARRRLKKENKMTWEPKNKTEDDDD
How it was run: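 Caup's homeodomain DNA-binding domain (residues 214-303) was made by in vitro transcription and translation and applied at 100 nM to custom-designed protein binding microarrays. Each value is an enrichment score that gives relative binding preference for a short DNA word, with higher meaning stronger. The 8-mer values were recovered from published 9-mer scores, each of which was the minimum of its two constituent 8-mer scores. A cutoff of 0.31 marks candidate sites.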

| Sequence | PBM E-score |
| --- | --- |
| CCTCAAAA | inactive: -0.00347 |
| GCTTTACC | inactive: 0.104 |
| ATGAGTAC | inactive: 0.185 |
| CCTAGGTC | inactive: -0.164 |
| AACTTTTA | inactive: 0.002 |
| CCTCGTAC | inactive: 0.043 |
| TAACTGGA | inactive: 0.00487 |
| GCCGTGCA | inactive: -0.068 |
| GGCCTACC | inactive: -0.17 |
| CCTACTAC | inactive: 0.0788 |
| ATTGCCCC | inactive: -0.0891 |
| CCAGGCCC | inactive: -0.267 |
| AACTACTA | ≥ 0.236 |
| GCGTCAGA | inactive: -0.0394 |
| GCCGATTA | inactive: 0.0515 |
| ACATCACA | active: 0.334 |
| CATTAGGG | inactive: -0.119 |
| AAAGTAGT | inactive: 0.0876 |
| GATTACCA | inactive: 0.0721 |
| AGACGCCT | inactive: -0.171 |
| ACGTAGTG | inactive: 0.0333 |
| AGAAACAG | inactive: 0.0712 |
| CAGAGTGG | inactive: -0.0137 |
| ATCCCAAA | inactive: -0.00932 |
| TCAATCGA | inactive: 0.147 |

| Sequence | PBM E-score |
| --- | --- |
| CGGGACCG | inactive: -0.14 |
| GAATCACC | ≥ 0.124 |
| GTATCGCA | inactive: 0.0619 |
| CCCGCACG | inactive: -0.152 |
| ACCTAGGT | inactive: -0.0494 |
| AGTGAAAA | inactive: 0.0379 |
| CCGCTGAC | inactive: -0.133 |
| CAGATATC | inactive: 0.0834 |
| ACAAAGTC | inactive: 0.0541 |
| ACGGTGCC | inactive: -0.168 |
| AGTGTCAA | inactive: 0.116 |
| ACTAGACT | inactive: 0.036 |
| AGCGATGA | inactive: -0.0597 |
| ATGAGAAA | inactive: 0.068 |
| TAAGACGA | inactive: 0.0732 |
| CAGGTTTA | inactive: 0.0953 |
| CCGCCTGA | inactive: -0.216 |
| ATGAGCAT | ≥ 0.153 |
| ACTGGTCT | inactive: -0.0659 |
| CGCAGTTA | inactive: -0.0217 |
| AATAAGCC | inactive: -0.0862 |
| GAATAACC | inactive: 0.0271 |
| ATGCTGAG | inactive: -0.124 |
| CAACGCAG | inactive: -0.0742 |
| AACCGACC | inactive: -0.0352 |

| Sequence | PBM E-score |
| --- | --- |
| ACACACGG | inactive: 0.128 |
| GCCTGAAA | inactive: -0.114 |
| GCGCACCC | inactive: -0.133 |
| CTAATGCA | inactive: 0.0153 |
| ATAAACCG | inactive: 0.109 |
| CACGTCTC | inactive: -0.0159 |
| GGGCGCCC | inactive: -0.325 |
| CGTCGGAG | inactive: -0.113 |
| CATGCTAA | inactive: 0.201 |
| GACGCTCC | inactive: -0.204 |
| GTAGCCGA | inactive: 0.0173 |
| CACCTGCA | inactive: -0.0858 |
| ACAGACGC | inactive: 0.0138 |
| ACCCTTTC | inactive: 0.0191 |
| GCCTCGTA | inactive: 0.00536 |
| GAACGTGA | inactive: -0.00878 |
| ATCTATCC | inactive: 0.0324 |
| AGGTATCA | inactive: 0.141 |
| CATATCAC | inactive: 0.208 |
| ATTGTAGC | inactive: 0.144 |
| GGCCATAC | inactive: -0.0567 |
| ACGAGTCC | inactive: -0.0179 |
| GGACCAAA | inactive: -0.0836 |
| ACGCTTAC | inactive: -0.0441 |
| CATCGTAG | inactive: -0.0768 |

| Sequence | PBM E-score |
| --- | --- |
| CCTAGTTA | inactive: 0.0742 |
| CCCACTCA | inactive: -0.0949 |
| TATGAGGA | inactive: 0.0611 |
| AGTTCGGC | inactive: -0.0963 |
| TACATTGA | inactive: 0.297 |
| AGGAACAA | inactive: 0.165 |
| ACTAAGAA | inactive: 0.0973 |
| ACGACACG | ≥ 0.301 |
| AGACTTAG | inactive: -0.0606 |
| GTAACCCA | inactive: 0.126 |
| TATCCCAA | inactive: 0.0112 |
| ACGTTACG | inactive: 0.0614 |
| GTCACCAC | inactive: -0.0334 |
| ACCAACGA | inactive: 0.0368 |
| AGCTTTCG | inactive: -0.116 |
| CAAGGTCC | inactive: -0.0224 |
| TCCCGAGA | inactive: -0.0982 |
| GCACAAGA | inactive: 0.0557 |
| ATTCTCGG | inactive: 0.0392 |
| CAAGCCTA | inactive: 0.0113 |
| CTTTGGAC | inactive: 0.0347 |
| CCAGGGTA | inactive: -0.146 |
| CACTAGCG | inactive: -0.129 |
| CCGTACTA | inactive: 0.0438 |
| AAACCCCG | ≥ -0.0734 |

| Sequence | PBM E-score |
| --- | --- |
| GATTACTA | inactive: 0.184 |
| GCGGGCTA | ≥ -0.128 |
| CTGTCATC | inactive: 0.134 |
| CATTAAGC | inactive: 0.00554 |
| TCGACGCA | inactive: -0.107 |
| ACCTTTAA | inactive: -0.0379 |
| AAACTCCG | inactive: -0.0817 |
| GTATATAC | inactive: 0.0688 |
| GCCTCGCC | inactive: -0.193 |
| ATGTCGAC | active: 0.326 |
| AAATGAGG | inactive: -0.113 |
| AGGCTACT | inactive: -0.0174 |
| ACGGTCGC | inactive: -0.0621 |
| AGCGCACC | inactive: -0.0646 |
| GTCGACCA | inactive: -0.0408 |
| GATTCACC | inactive: -0.101 |
| AGGGTGTA | inactive: 0.193 |
| AAGATCGA | inactive: 0.0302 |
| CTCGTCCA | inactive: -0.0549 |
| AATGTGAT | inactive: 0.24 |
| GTCATGAA | inactive: 0.0353 |
| ATGACCAA | inactive: 0.0741 |
| CTCCAGCA | inactive: -0.0777 |
| CTACTGGC | inactive: -0.161 |
| CTGGCCCC | inactive: -0.225 |

| Sequence | PBM E-score |
| --- | --- |
| GGTCCACA | inactive: -0.00834 |
| AACACTCG | inactive: 0.0192 |
| CTCTGAGC | inactive: -0.107 |
| AAAGGACC | inactive: -0.146 |
| AATAGCGC | inactive: -0.0439 |
| ACAAGGTA | active: 0.335 |
| GGATAGCC | inactive: -0.166 |
| GCCCCTAC | inactive: -0.167 |
| AGTTAAAA | inactive: 0.12 |
| GTGTAACA | active: 0.397 |
| TCGTAAGA | inactive: 0.0323 |
| ATTGCTAC | inactive: 0.0957 |
| AAGAGAAT | inactive: -0.0389 |
| AAGTATGA | inactive: 0.111 |
| CGGGAACC | inactive: -0.163 |
| AAGTGTTC | inactive: 0.154 |
| GTAGTCAA | inactive: 0.136 |
| CCGAACAC | inactive: 0.119 |
| GCTGAACA | inactive: 0.182 |
| ATACTGAT | inactive: 0.189 |
| CCGTAGTA | inactive: 0.0724 |
| GGCTTCAA | inactive: -0.0907 |
| AGGTTATA | inactive: 0.0929 |
| ATAAAGTC | inactive: 0.0274 |
| CCTCGAAG | inactive: -0.0776 |

| Sequence | PBM E-score |
| --- | --- |
| CTAACCAA | inactive: 0.0913 |
| CCTGACCC | inactive: -0.182 |
| TACGGTAA | inactive: 0.116 |
| CAGCGCTA | inactive: -0.0147 |
| GGGAGTGA | inactive: -0.0488 |
| AGAAGGCT | inactive: -0.215 |
| AACCCGAT | ≥ 0.0241 |
| CAGGGTAC | inactive: 0.0986 |
| CAGCCGGC | inactive: -0.299 |
| GGCCCTAC | inactive: -0.163 |
| GCGCGCGC | ≥ -0.06 |
| GACCACAC | inactive: -0.0391 |
| GACCCCTC | inactive: -0.227 |
| GATTGGTA | inactive: 0.126 |
| AGGCAACG | inactive: -0.109 |
| CCTGAAAG | inactive: -0.109 |
| ACCCGGCC | inactive: -0.322 |
| AAAGAGTA | inactive: 0.0035 |
| AGCTTTGA | ≥ 0.00033 |
| CGGAAGTC | inactive: -0.141 |
| CCTTCTCA | inactive: -0.0702 |
| CTTTGTGA | inactive: 0.0514 |
| GACAGCCA | inactive: -0.0268 |
| TCACAGAA | inactive: -0.0106 |
| CTTGAACC | inactive: 0.00592 |

| Sequence | PBM E-score |
| --- | --- |
| AATATATT | inactive: 0.253 |
| CACTTACG | inactive: 0.0708 |
| AACGCCTG | inactive: -0.0371 |
| ACATCACC | inactive: 0.186 |
| ACAATATG | inactive: 0.296 |
| CCATAAAA | inactive: 0.0948 |
| CGCTGAAC | inactive: 0.0226 |
| GCCAGTGA | inactive: -0.0845 |
| CAACCCGC | inactive: -0.0395 |
| CGCCCAAA | inactive: -0.0746 |
| ATCCCTTC | inactive: -0.0331 |
| ACTCTCCA | inactive: -0.0803 |
| AACGACGC | inactive: 0.00675 |
| CGATTCCC | inactive: -0.0812 |
| AGTGAGTG | inactive: -0.0157 |
| AGTCGCAC | inactive: -0.0631 |
| AATTCTTG | inactive: 0.133 |
| CTCGCGGC | inactive: -0.207 |
| CTATACTC | inactive: -0.0213 |
| AGCCGCCC | inactive: -0.249 |
| GATGAATC | inactive: 0.106 |
| ACTCTAAC | inactive: 0.0975 |
| CCGAACAG | inactive: 0.0146 |
| CGTGTAGC | inactive: 0.276 |
| ACAAAATA | inactive: 0.189 |

| Sequence | PBM E-score |
| --- | --- |
| CTTTCGGA | inactive: -0.077 |
| AGGAACGC | inactive: -0.132 |
| GAGCATTA | inactive: 0.0861 |
| ATGGGGGG | inactive: -0.295 |
| GTGGCAAA | inactive: -0.117 |
| ACTACGGG | inactive: -0.0453 |
| GCCTGAGC | inactive: -0.224 |
| ACGTGCAC | inactive: 0.0623 |
| ACTACACC | inactive: 0.281 |
| CAATAGAA | inactive: 0.0418 |
| AGGTCTCC | inactive: -0.181 |
| ATCTCCTA | inactive: 0.0705 |
| CTGAGCCC | inactive: -0.214 |
| CTCTCTAA | inactive: -0.145 |
| AAGTGCAG | inactive: -0.0499 |
| CACCTAGG | inactive: -0.104 |
| ACCCGATC | inactive: -0.0489 |
| AAGAGCTC | inactive: -0.128 |
| CGGGACGC | inactive: -0.263 |
| CTAGCATC | inactive: -0.0492 |
| ACAACTGT | ≥ 0.224 |
| AAGAGGGT | inactive: -0.0736 |
| AGTCAATC | inactive: 0.098 |
| AACTCGAC | inactive: 0.126 |
